From the supplement of paper PMC7826260
The other results are listed elsewhere or left out. One pool of 16,384 single-stranded DNAs met each Rep nickase domain in vitro for 1 h at 37 °C with 3 µM enzyme; only the middle of the 90-letter strands is printed. Numbers give uncut DNA relative to the enzyme-free pool, as log2; strong cutting gives strongly negative numbers. There is no active / inactive call. Counts are relative to all reads; values above 0 arise when much of the pool is cut.

Experiments:
Assay in all cases: uncleaved DNA left, log2 of reads against the no-enzyme library (log2 ratio); higher = less cleavage (more negative = more Rep cleavage of the k-mer); sequences stand for … in CTCGTCCG…ACCGGAGA
[1] = tested on: T1, Rep nickase domain of Muscovy duck circovirus
T1 sequence (residues 1-111, tag not shown): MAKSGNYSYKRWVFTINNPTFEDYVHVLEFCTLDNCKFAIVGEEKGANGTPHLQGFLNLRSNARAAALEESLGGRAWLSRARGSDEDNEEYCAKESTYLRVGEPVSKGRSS
Experimental: (§1)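 A pool of 90-nt single-stranded DNAs with seven random bases just before the constant AC of the nick site (name = the seven bases) was cut by 3 µM recombinant His6-SUMO-tagged Rep nickase domain (300 nM DNA, 50 mM HEPES pH 8.0, 50 mM NaCl, 1 mM MnCl2, 1 h, 37 °C, three replicates). Uncut DNA was amplified and sequenced.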

[2] = tested on: T2, Rep nickase domain of banana bunchy top virus
T2 sequence (residues 1-94, tag not shown): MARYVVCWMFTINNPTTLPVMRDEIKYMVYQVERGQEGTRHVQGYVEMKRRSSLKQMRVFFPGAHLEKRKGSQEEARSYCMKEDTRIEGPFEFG
Experimental: as §1

[3] = tested on: T3, Rep nickase domain of cabbage leaf curl virus
T3 sequence (residues 1-116, tag not shown): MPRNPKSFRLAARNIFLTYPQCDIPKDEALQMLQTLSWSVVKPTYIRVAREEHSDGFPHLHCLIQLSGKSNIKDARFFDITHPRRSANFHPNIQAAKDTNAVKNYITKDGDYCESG
Experimental: as §1

[4] = tested on: T4, Rep nickase domain of chickpea chlorotic dwarf virus
T4 sequence (residues 1-124, tag not shown): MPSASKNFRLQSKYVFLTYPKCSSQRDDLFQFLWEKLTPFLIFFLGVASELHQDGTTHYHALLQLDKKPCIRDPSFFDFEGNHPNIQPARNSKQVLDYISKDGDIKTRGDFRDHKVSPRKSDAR
Experimental: as §1

[5] = tested on: T5, Rep nickase domain of faba bean necrotic yellows virus
T5 sequence (residues 1-98, tag not shown): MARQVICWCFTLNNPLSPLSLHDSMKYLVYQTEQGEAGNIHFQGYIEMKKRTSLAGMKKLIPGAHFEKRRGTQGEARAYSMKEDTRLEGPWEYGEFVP
Experimental: as §1

[6] = tested on: T6, Rep nickase domain of maize striate mosaic virus
T6 sequence (residues 1-117, tag not shown): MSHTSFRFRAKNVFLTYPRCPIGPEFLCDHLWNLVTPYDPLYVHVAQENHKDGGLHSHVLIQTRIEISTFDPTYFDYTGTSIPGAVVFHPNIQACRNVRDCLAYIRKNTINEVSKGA
Experimental: as §1

[7] = tested on: T7, Rep nickase domain of porcine circovirus 2
T7 sequence (residues 2-116, tag not shown): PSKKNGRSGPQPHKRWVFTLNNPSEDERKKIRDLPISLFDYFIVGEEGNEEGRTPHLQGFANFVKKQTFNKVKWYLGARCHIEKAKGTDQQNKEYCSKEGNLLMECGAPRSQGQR
Experimental: as §1

[8] = tested on: T8, Rep nickase domain of tomato golden mosaic virus
T8 sequence (residues 1-124, tag not shown): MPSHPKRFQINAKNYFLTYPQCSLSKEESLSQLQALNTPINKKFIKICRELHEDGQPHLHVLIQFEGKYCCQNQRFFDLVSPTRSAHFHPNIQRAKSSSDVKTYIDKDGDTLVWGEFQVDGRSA
Experimental: as §1

[9] = tested on: T9, Rep nickase domain of tomato yellow leaf curl virus
T9 sequence (residues 1-136, tag not shown): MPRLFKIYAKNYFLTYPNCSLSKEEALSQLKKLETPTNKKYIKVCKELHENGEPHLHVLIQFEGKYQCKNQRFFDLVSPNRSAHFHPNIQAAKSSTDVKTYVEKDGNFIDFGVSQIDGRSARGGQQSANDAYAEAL
Experimental: as §1

[10] = tested on: T10, Rep nickase domain of wheat dwarf virus
T10 sequence (residues 1-137, tag not shown): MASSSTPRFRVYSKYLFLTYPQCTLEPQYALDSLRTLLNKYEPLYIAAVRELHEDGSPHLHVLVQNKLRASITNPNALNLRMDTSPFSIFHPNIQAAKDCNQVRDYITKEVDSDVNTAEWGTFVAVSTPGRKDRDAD
Experimental: as §1

| Sequence | uncleaved DNA left (log2) [1] | uncleaved DNA left (log2) [2] | uncleaved DNA left (log2) [3] | uncleaved DNA left (log2) [4] | uncleaved DNA left (log2) [5] | uncleaved DNA left (log2) [6] | uncleaved DNA left (log2) [7] | uncleaved DNA left (log2) [8] | uncleaved DNA left (log2) [9] | uncleaved DNA left (log2) [10] |
| --- | --- | --- | --- | --- | --- | --- | --- | --- | --- | --- |
| TCCGTAA | -0.0613 | -0.00555 | 0.0936 | -0.14 | -0.0435 | -0.146 | -0.0953 | -0.116 | 0.107 | -0.142 |
| TCGCACG | -0.0633 | -0.0297 | -0.722 | -0.79 | -0.11 | -1.21 | 0.0596 | -0.211 | -0.155 | -0.291 |
| ACGATCC | 0.0312 | 0.158 | 0.108 | 0.242 | 0.109 | -0.0276 | 0.195 | 0.107 | -0.0332 | -0.0291 |
| TTAGGTG | 0.00133 | -0.044 | -0.283 | -0.404 | 0.0494 | -0.679 | 0.222 | 0.112 | -0.0565 | -0.0777 |
| GTGTGTG | 0.0591 | -0.00414 | -0.449 | -0.374 | -0.00228 | -0.731 | 0.0285 | -0.0669 | -0.113 | -0.0234 |
| TTTGGAA | 0.1 | -0.0106 | 0.258 | 0.502 | -0.00811 | 0.533 | 0.114 | -0.000543 | 0.0105 | -0.0935 |
| AAGGTGT | 0.0943 | 0.101 | 0.172 | 1.33 | 0.156 | 1.6 | 0.149 | 0.123 | -0.144 | -0.0627 |
| ACTTTCC | -0.0852 | 0.0947 | 0.00445 | -0.216 | 0.129 | -0.484 | -0.114 | 0.00841 | -0.0715 | 0.103 |
| CCAGCCT | -0.176 | -0.16 | -0.405 | -2.23 | -0.121 | -0.63 | -0.184 | -0.192 | -0.21 | -0.289 |
| GGAGTGA | 0.124 | 0.0495 | 0.674 | 1.31 | 0.065 | 1.61 | 0.182 | 0.111 | 0.0929 | 0.183 |
| TTTTACC | -3.25 | -0.275 | -0.576 | -2.43 | -0.767 | -0.121 | -3.24 | -0.134 | 0.1 | -0.755 |
| GATAGGA | 0.0303 | 0.0215 | 0.266 | 0.53 | 0.0179 | 0.225 | 0.123 | 0.127 | 0.0257 | 0.0904 |
| AGTTACC | -0.0195 | -0.0795 | 0.0274 | -1.38 | -0.0824 | 0.0917 | -0.621 | -0.118 | -0.125 | -0.0216 |
| CTACTTG | -0.238 | -0.221 | -0.618 | -1.78 | -0.121 | -1.01 | -0.138 | -0.25 | -0.121 | -0.173 |
| AAGGTGG | 0.0064 | -0.0857 | -0.215 | 0.229 | 0.0268 | -0.389 | 0.227 | 0.0397 | 0.0281 | 0.0347 |
| CCCCGCA | -0.163 | -0.0994 | -0.28 | -0.793 | -0.259 | -1.03 | -0.0901 | -0.159 | -0.156 | -0.0525 |
| TCACTGA | -0.0368 | -0.0293 | -0.0874 | 0.293 | 0.00817 | 0.825 | 0.0624 | -0.0971 | 0.000616 | -0.0628 |
| CTTGCCA | -0.0208 | 0.0542 | -0.307 | -0.904 | 0.0305 | -1.01 | 0.0897 | -0.0618 | 0.122 | 0.00209 |
| GTTCCGA | -0.0517 | -0.097 | 0.239 | 0.933 | -0.105 | 1.53 | 0.00889 | -0.0539 | -0.0537 | -0.0568 |
| TATTTTC | -3.07 | -0.647 | 0.128 | -0.615 | 0.066 | -0.641 | -1.19 | -0.0436 | 0.161 | 0.0142 |
| AATCTGA | 0.0255 | -0.0793 | 0.0116 | 0.428 | -0.0525 | 0.86 | 0.0262 | 0.0343 | -0.123 | -0.0251 |
| AAGTAGG | 0.133 | -0.0048 | -0.136 | 0.305 | -0.00564 | -0.288 | -0.00348 | 0.13 | -0.0385 | -0.00325 |
| CCCGAAC | -0.124 | -0.311 | -0.0132 | -0.275 | -0.163 | -0.463 | 0.0237 | -0.175 | -0.122 | -0.0911 |
| AGTATTT | 0.0261 | -0.231 | 0.0661 | -2.24 | -0.272 | 0.122 | -3.24 | 0.0388 | -0.0561 | -0.0459 |
| GGAACCT | 0.0785 | 0.061 | 0.745 | 1.55 | 0.0761 | 2.14 | 0.0598 | 0.0756 | 0.137 | 0.282 |
| CAGGCAG | 0.0546 | -0.00365 | -0.491 | -0.332 | 0.0824 | -0.812 | 0.209 | 0.0372 | 0.0634 | -0.0297 |
| GAAGACT | 0.0919 | 0.162 | 0.373 | 0.531 | 0.0409 | 1.84 | 0.276 | 0.174 | 0.075 | 0.233 |
| GTTTGGA | 0.0485 | 0.00819 | 0.202 | 0.748 | -0.0494 | 1.45 | 0.106 | 0.0713 | -0.035 | -0.0367 |
| CCCCTTA | 0.0412 | -0.039 | 0.14 | -1.01 | 0.105 | -0.264 | -0.201 | -0.0539 | -0.208 | -0.0474 |
